In a collection of fitness landscapes (doi:10.1038/s41467-024-54723-y):
Whole data set: some 18,000 sequences, median “TetR repression strength (sort-seq, GFP reporter)” near 0.23, cut for the highest 2% near 0.68. The list shows a part of the results.

molecular target: TetR (class B, Tn10) (UniProt P04483); assay: TetR repression strength (sort-seq, GFP reporter) (relative to tetO2 = 1); higher = stronger repression; details: E. coli
Method in brief: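 Escherichia coli SIG10-MAX cells carried a low-copy plasmid library in which eight operator positions were randomized between a constitutive promoter and sfGFP, and TetR was expressed constitutively. After 5 h of growth at 37 °C in LB with 50 µg/mL chloramphenicol, 10^6 cells were FACS-sorted into 13 fluorescence bins, and each bin was Illumina-sequenced. Repression strength was the top bin index plus one minus the read-weighted mean bin, divided by the value for the unaltered operator. Across three independent transformations, only library members with ≥30 reads in every replicate and a CV ≤0.5 were averaged.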

Sequence of UniProt P04483 (P04483 whole entry): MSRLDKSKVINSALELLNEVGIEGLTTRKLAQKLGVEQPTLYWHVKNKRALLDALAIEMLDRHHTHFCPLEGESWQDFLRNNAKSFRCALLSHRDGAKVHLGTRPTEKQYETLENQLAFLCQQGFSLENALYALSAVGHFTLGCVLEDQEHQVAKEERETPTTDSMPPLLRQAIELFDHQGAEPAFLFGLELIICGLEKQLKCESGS

Sequence	TetR repression strength
TCCCGTGTAGTCTAGGAGA	0.272
TCCCTCTCAGTGCTTGAGA	0.661
TCCCCGATAGTCTGGGAGA	0.0204
TCCCGTAAAGTCGACGAGA	0.0349
TCCCTAATAGTCGGGGAGA	0.311
TCCCGATCAGTAGCAGAGA	0.207
TCCCGATCAGTTGGCGAGA	0.18
TCCCTACGAGTGACGGAGA	0.0954
TCCCCTGTAGTCGCGGAGA	0.253
TCCCTCCTAGTGGGCGAGA	0.0815
TCCCCCTTAGTTCGCGAGA	0.107
TCCCTTCAAGTTTGTGAGA	0.418
TCCCCTGCAGTGGGGGAGA	0.225
TCCCTAGGAGTACGAGAGA	1.01
TCCCTTCTAGTCCCGGAGA	0.415
TCCCGGTGAGTCCTTGAGA	0.126
TCCCTCTGAGTAAGCGAGA	0.318
TCCCCCGAAGTGTAAGAGA	0.207
TCCCTATAAGTGGCCGAGA	0.719

Sequence	TetR repression strength
TCCCCACGAGTCGGTGAGA	0.207
TCCCCGATAGTCCTGGAGA	0.33
TCCCGGAAAGTATGTGAGA	0.0538
TCCCTGTCAGTGTCCGAGA	0.348
TCCCGTCCAGTTTACGAGA	0.238
TCCCCCTCAGTACGTGAGA	0.397
TCCCGGAAAGTTGCCGAGA	0.494
TCCCCTGTAGTTGCCGAGA	0.264
TCCCGACAAGTGCTAGAGA	0.273
TCCCGTTCAGTGAACGAGA	0.617
TCCCGGTTAGTGTTTGAGA	0.601
TCCCCCGTAGTTGTAGAGA	0.27
TCCCGCCGAGTTGTCGAGA	0.393
TCCCAATCAGTGAGAGAGA	0.538
TCCCGCGTAGTATCGGAGA	0.187
TCCCATTCAGTACTGGAGA	0.335
TCCCGCGCAGTCCGGGAGA	0.0991
TCCCATGTAGTGACGGAGA	0.204
TCCCAACAAGTCCTTGAGA	0.307

Sequence	TetR repression strength
TCCCTCAGAGTTTGCGAGA	0.244
TCCCCGTAAGTGGGCGAGA	0.127
TCCCTCATAGTGGGTGAGA	0.0921
TCCCAGCGAGTCCAGGAGA	0.27
TCCCGTAGAGTCATCGAGA	0.195
TCCCTATCAGTTACTGAGA	0.698
TCCCTCGGAGTTGGGGAGA	0.227
TCCCTGGAAGTGGGAGAGA	0.121
TCCCAATCAGTGCTAGAGA	0.458
TCCCATGTAGTACGGGAGA	0.142
TCCCCGTAAGTGTGTGAGA	0.0801
TCCCGGTCAGTATGAGAGA	0.263
TCCCAGAGAGTGGCGGAGA	0.247
TCCCAAGTAGTGCATGAGA	0.242
TCCCCTCCAGTGAGAGAGA	0.305
TCCCGTCTAGTATCTGAGA	0.331
TCCCGAGCAGTCACGGAGA	0.0718
TCCCTGATAGTGGGCGAGA	0.183
